From PubChem BioAssay AID602233 (National Center for Advancing Translational Sciences (NCATS), 2012) come the findings set out here.

SMILES strings stand for the structures. About 170 (0.045%) of roughly 380,000 compounds were called active. Calls come from the whole dose curve; as a rule, active = well fitted inhibition curve with a large enough effect; inconclusive = small, poorly fitted or top-dose-only effect; inactive = no such curve, though single readings can be large or run the other way. The list shows a part of the results, in another mix than the full data.
Potency is the fitted concentration of half-maximal effect.

The target in this assay is Phosphoglycerate kinase, glycosomal (Trypanosoma brucei brucei) (UniProt P07378). In words: qHTS Assay to Find Inhibitors of Phosphoglycerate Kinase. Note: nearly all actives have a fitted effect of over 60% in size. Particulars: PGK/GAPDH coupled, Kinase-Glo luminescence, 60 min; series mostly up to 57.5 µM; activity change, negative = inhibition: at the top concentration. An excerpt:
Several species of the Trypanosomatidae family of parasitic protozoans cause a spectrum of diseases throughout the tropical and subtropical world. Sleeping sickness, caused by two subspecies of Trypanosoma brucei, is endemic to areas of sub-Saharan Africa, while Chagas disease, a manifestation of Trypanosoma cruzi infection, is prevalent throughout Central and South America. In addition, many species of Leishmania are responsible for a range of cutaneous and visceral diseases, causing ulcers, destructive lesions and kalaazar, a lethal infection of the viscera. Collectively, these organisms infect 30 million people worldwide (~500 million live in endemic areas), and account for ~130,000 deaths annually. Given their debilitating and prevalent nature, trypanosomatid parasites impose a heavy medical, economic and social burden on entire populations, primarily in the developing world. The problem is further exacerbated by the fact that existing treatments have progressed little in the past 50 years, and current drugs show high toxicity and poor efficacy. […] Blood-stream stages of T. brucei are entirely dependent on glycolysis as a source of ATP, and the tricarboxylic acid cycle and oxidative phosphorylation are both repressed. Glycolysis in axenically cultured T. cruzi, representing the intracellular pathogenic stage, is also essential for these parasites. […] Previous studies have shown that the glycolytic enzyme, phosphoglycerate kinase (PGK), is a viable target for drugs to kill these parasites. […] NIH Molecular Libraries Probe Production Network [MLPCN] NIH Chemical Genomics Center [NCGC] MLPCN Grant: R03 MH093212 PI Name: Malcolm Walkinshaw, University of Edinburgh
3ul of substrate/PGK buffer (columns 1,2,5-48) are dispensed into Greiner white solid bottom 1536-well assay plates; columns 3-4 receive only TEA buffer as 0x PGK controls. Compounds are then transferred via Kalypsys pin tool equipped with 1536-pin array (10nl slotted pins, V&P Scientific, San Diego, CA). Following addition of compound, 1ul of GAPDH (100nM final concentration, all columns) is added to initiate the reaction (this upstream coupling enzyme is necessary for in-well production of PGK substrate, 1,3-bisphosphoglycerate (1,3-BPG), which is unstable and not commercially available). The plates are then incubated at room temperature for 60 minutes. Kinase-Glo Plus reagent is added (2ul) and plates incubated for 10 minutes, before being transferred to a ViewLux high-throughput CCD imager (PerkinElmer) wherein single end-point measurements of luminescence are acquired using a clear filter. All reagents are diluted in an assay buffer consisting of 100mM TEA (pH 7.6), 5mM MgCl2 and 0.01% Tween-20.
As to `O=C(O)c1cccc(-n2cccc2/C=C2/NC(=O)N(c3ccc(Cl)cc3)C2=O)c1`, the Potency was active: 3.16 µM. Consider `CCc1cc(C(c2ccc(OC)c(OC)c2)N2CCOCC2)c(NC(=O)c2ccccc2)s1` (centres undefined), for which the “activity change, negative = inhibition” value was inactive: 20%. As for `CC(C)(C)OC(=O)C[C@@H]1C/C=C\C[C@H](CC(=O)N[C@@H](CO)Cc2ccccc2)C(=O)N[C@H](C(C)(C)C)COC1=O`, the “activity change, negative = inhibition” value is inactive: -0.616%.

With `Nc1nc(=S)c2ncn([C@@H]3O[C@H](CO)[C@@H](O)[C@H]3O)c2[nH]1`, the “activity change, negative = inhibition” value is inactive: -4.42%. The same measure, in the same setting: with `CCCCCC(=O)NNC(=S)NC(=O)c1ccccc1[N+](=O)[O-]` the figure was inactive: 30.8%. Take `Cc1nn2c(c1-c1ccccc1)NC1=C(C(=O)CCC1)C2c1ccccc1` (centres undefined): the “activity change, negative = inhibition” value is inactive: 28.9%. In the case of `CS(=O)(=O)c1ccc2c(c1)sc1nc(=O)c(/C=C3/C=CC(=O)C(O)=C3)c(N)n12`, the Potency is active: 12.6 µM. Consider `CC(C)(C)OC(=O)C[C@H]1C/C=C\C[C@H](CC(=O)NCCO)C(=O)N2CCC[C@@H]2COC1=O`, for which the call was inactive. In the case of `Cc1cc(C)n(-c2nc3ccccc3n3c(C)nnc23)n1`, the “activity change, negative = inhibition” value is inactive: 3.22%.

On to `COc1ccc(CNc2ccc(C)c(C)c2)cc1`, for which the “activity change, negative = inhibition” value was inactive: 23.9%.

For `Cc1nc(N)nc(N)c1/C=C/C(C)(C)c1ccc(Cl)cc1`, the “activity change, negative = inhibition” value is inactive: 3.35%.

With `CC(/C=C\c1cccnc1)=C/C(=O)O`, the “activity change, negative = inhibition” value was inactive: -6.93%. For `CCc1ccc(/C(C)=N/NC(=O)CNC(=O)/C=C/c2ccco2)cc1`, the Potency was active: 14.1 µM.

Consider `CC(C)N1CCN(Cc2cnc(N3CCCC3)s2)CC1CCO` (centres undefined), for which the “activity change, negative = inhibition” value was inactive: 19%. On to `Cc1sc(NC(=O)c2ccc(Br)s2)c(C(N)=O)c1C`, for which the “activity change, negative = inhibition” value was inactive: 21.2%. With `CC(C)(C)OC(=O)C[C@@H]1C/C=C\C[C@@H](CC(=O)N(CCO)Cc2ccccc2)C(=O)NC[C@@H](c2ccccc2)OC1=O`, the “activity change, negative = inhibition” value was inactive: 1.42%. `C=C(C)C(=O)Nc1cccc(C2=NOC3(C2)C[C@@H](C(N)=O)N(C(=O)c2ccc(Cl)cc2)C3)c1` (some centres undefined): the Potency was active: 2.24 µM. For `O=C(Nc1ncc([N+](=O)[O-])s1)c1cccs1`, the “activity change, negative = inhibition” value was inactive: -6.02%. Turning to `O=c1cc(-c2ccc(O)c(O)c2)oc2cc(O)c([C@@H]3O[C@H](CO)[C@@H](O)[C@H](O)[C@H]3O)c(O)c12`, the “activity change, negative = inhibition” value was inactive: -1.15%.

In the case of `CCN1C(c2ccccc2)=C(c2ccccc2)S/C1=C/C=C1\SC(=S)N(C)C1=O`, the “activity change, negative = inhibition” value is inactive: -29.3%. With `O=C(NN1C(=O)/C(=C/C=C/c2ccco2)SC1=S)c1ccncc1`, the Potency was active: 14.1 µM.

Turning to `CCN(CC)c1ccc(NC(=O)c2ccco2)cc1`, the “activity change, negative = inhibition” value is inactive: 20.9%. As for `CCc1nnc(NC(=O)C2CCCN2C(=O)Nc2ccccc2)s1` (centres undefined), the “activity change, negative = inhibition” value was inactive: 22.1%. In the case of `Cc1ccc(/C=N/NC(=O)CCn2nc(C)cc2C)c(C)c1`, the “activity change, negative = inhibition” value was inactive: -1.49%.

Turning to `COc1cc(OC)cc(C(=O)N[C@H](C(=O)Nc2nc(-c3cc(OC)ccc3OC)cs2)C(C)C)c1`, the “activity change, negative = inhibition” value is inactive: 31.8%.

With `O=C(O)c1cc(O)c2c(c1)[C@@H]([C@H]1c3cc(C(=O)O)cc(O)c3C(=O)c3c(O[C@@H]4O[C@H](CO)[C@@H](O)[C@H](O)[C@H]4O)cccc31)c1cccc(O[C@@H]3O[C@H](CO)[C@@H](O)[C@H](O)[C@H]3O)c1C2=O`, the Potency was active: 3.16 µM. Regarding `Cc1c(CC(=O)N2CCN(C(=O)C3COc4ccccc4O3)CC2)c(=O)oc2c(O)c(O)ccc12` (centres undefined), the Potency was active: 8.91 µM. Regarding `CC1CN(C(=O)c2cc3c(=O)n4ccccc4nc3s2)CC(C)O1` (centres undefined), the “activity change, negative = inhibition” value was inactive: 25%. On to `CC=Cc1cc(OC)c2c(c1)C(C)C(c1ccc(O)c(OC)c1)O2` (centres undefined), for which the “activity change, negative = inhibition” value was inactive: 17%.

Regarding `Cn1nc(C(=O)Nc2cccnc2)c2ccccc2c1=O`, the “activity change, negative = inhibition” value is inactive: 19.1%. On to `CC(C)c1nc(Cl)c(C#N)c2c1CSC(C)(C)C2`, for which the “activity change, negative = inhibition” value was inactive: 18.5%.

Turning to `Cc1ccc(S(=O)(=O)c2nc(NN(C)C)sc2Cl)cc1`, the “activity change, negative = inhibition” value was inactive: 42%. Consider `COc1ccc(-c2nc(-c3ccccn3)no2)cc1`, for which the Potency is active: 15.8 µM. `COc1ccc(S(=O)(=O)N2CCC(C(=O)NC3(C)CCS(=O)(=O)C3)CC2)cc1OC` (centres undefined): the “activity change, negative = inhibition” value was inactive: 20.3%. Same read-out and setting: with `CC(=C/c1ccco1)/C=N/N1CCN(c2ccccc2)CC1` the figure was inactive: -11.1%; with `CC(=O)Nc1cc(-c2ccccc2)ccc1O`, inactive: 20.3%. Turning to `O=C1/C(=C/c2ccncc2)CCc2ccccc21`, the “activity change, negative = inhibition” value is inactive: -19.5%. Consider `CCOC(=O)N1CCC(NC(=O)C2CCN(S(=O)(=O)N3CCC(C)CC3)CC2)CC1`, for which the “activity change, negative = inhibition” value is inactive: 25.1%.

For the molecule `CC(C)(C)C(=O)COC(=O)C1=NN(c2ccccc2)C(=O)CC1`, the “activity change, negative = inhibition” value is inactive: 16.2%. In the case of `Cn1c(=O)c2c(ncn2CCNC2=NCCCCC2)n(C)c1=O`, the “activity change, negative = inhibition” value was inactive: 5.63%. `Cc1cccc(Cn2c(O)c(N=NC(=S)Nc3ccccc3F)c3ccccc32)c1`: the “activity change, negative = inhibition” value is inactive: 15.9%.

Consider `COc1cccc(C2N(c3ccccc3)CCN2c2ccccc2)c1OC`, for which the “activity change, negative = inhibition” value is inactive: 8.41%. `CC(=O)NC1C(=O)N(CCN2CCOCC2)c2ccc(C)cc21` (centres undefined): the Potency was active: 20 µM. With `CC(C)(C)OC(=O)C[C@@H]1C/C=C\C[C@@H](CC(=O)NCCO)C(=O)N2CCC[C@H]2COC1=O`, the “activity change, negative = inhibition” value was inactive: -10%.
